In the supplement of paper PMC3334620:
Whole data set: some 33,000 sequences, median “E-score (-0.5 to 0.5)” near -0.041, cut for the highest 2% near 0.37. The list shows a part of the results.

biological target: T1, Ecm22 (UniProt Q05958); assay: PBM E-score (8-mer binding enrichment) (E-score (-0.5 to 0.5)); higher = stronger / more preferred TF binding; most listed sequences are background and not binding sites; settings: protein concentration: 200 nM; construct: GST-full length
T1 sequence: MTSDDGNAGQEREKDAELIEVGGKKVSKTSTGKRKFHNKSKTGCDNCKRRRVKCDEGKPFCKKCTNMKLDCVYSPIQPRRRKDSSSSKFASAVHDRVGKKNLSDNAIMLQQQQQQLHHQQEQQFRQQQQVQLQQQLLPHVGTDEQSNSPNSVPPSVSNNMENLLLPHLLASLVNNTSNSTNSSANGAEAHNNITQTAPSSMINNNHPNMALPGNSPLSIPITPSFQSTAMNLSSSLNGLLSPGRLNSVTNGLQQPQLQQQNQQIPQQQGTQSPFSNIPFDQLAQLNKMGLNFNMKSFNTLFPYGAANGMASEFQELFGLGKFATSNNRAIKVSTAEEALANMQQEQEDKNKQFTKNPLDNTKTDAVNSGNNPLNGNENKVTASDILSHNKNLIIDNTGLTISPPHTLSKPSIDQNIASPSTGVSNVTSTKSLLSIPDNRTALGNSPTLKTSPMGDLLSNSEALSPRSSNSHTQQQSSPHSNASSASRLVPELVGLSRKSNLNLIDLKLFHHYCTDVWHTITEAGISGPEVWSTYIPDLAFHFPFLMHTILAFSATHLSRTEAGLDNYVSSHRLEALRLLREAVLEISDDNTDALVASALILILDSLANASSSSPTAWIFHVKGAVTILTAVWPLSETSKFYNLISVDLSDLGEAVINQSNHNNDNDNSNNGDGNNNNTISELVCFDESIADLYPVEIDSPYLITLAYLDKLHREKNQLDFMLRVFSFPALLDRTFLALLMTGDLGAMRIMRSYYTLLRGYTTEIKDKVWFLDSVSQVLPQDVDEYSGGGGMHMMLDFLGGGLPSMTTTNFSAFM
How it was run: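 Yeast transcription factors carrying a GST tag, as full-length proteins or DNA-binding domains, were produced by PURExpress in vitro transcription/translation. About 100-200 nM protein was applied to universal all-10-mer Agilent arrays, double-stranded by primer extension on fresh or once-stripped slides. Bound protein was detected with fluorescent anti-GST, and scans were normalised with masliner. The Universal PBM Analysis Suite gave each ungapped eight-base word, pooled with its reverse complement, an E-score, a modified Wilcoxon-Mann-Whitney statistic.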

Point of comparison: AACTGTCT, “PBM E-score” value -0.127. Against it:
- AGTTCTCG — higher, 0.244
- AATATCAC — higher, -0.0232
- CAGCGACC — lower, -0.189
- AAGTCAAC — higher, -0.0403
- CAGGTGGA — lower, -0.313
- TGTAACAA — higher, 0.00855
- AACGCCCC — higher, 0.0855
- ATCAGAAA — lower, -0.206
- ATTCTCAG — lower, -0.308
- AATAGGGC — lower, -0.141
- ACTTTCAT — higher, -0.057
- CTAGTGAG — lower, -0.237
- CTTAACTA — higher, -0.113
- ATCTTAAG — higher, -0.0865
- CGTCTGAC — higher, 0.104
- TACACGTA — higher, 0.131
- AATGAGGT — higher, -0.058
- CCCTACAC — higher, -0.0142
- CGTCATCA — higher, 0.0164
- ATAATAGC — higher, 0.0604
- CAACGCAC — higher, 0.0008
- CTAGTCTC — lower, -0.128
- GGAGGATA — lower, -0.136
- ATCTCGAA — higher, 0.069
- ATTTCTGG — lower, -0.211
- CTGTGAGC — higher, -0.0522
- ATTTAAGG — higher, -0.0374
- TGAGGGAA — higher, -0.0613
- AATCATGG — higher, -0.122
- AGCAGGCC — lower, -0.174
- AATAGTCA — higher, -0.014
- AACGTCTC — higher, 0.0335
- CTACGCTA — lower, -0.199
- GCTCCAAA — lower, -0.167
- ATCTCCGG — higher, 0.033
- ATTAATAA — higher, 0.0778
- AACGAGCA — higher, 0.46
- ATCCTATG — lower, -0.143
- CCGTAGTC — higher, 0.0351
- GAGCTGGC — higher, -0.0227
- GAATGAGC — higher, -0.0444
- GAGGACGC — higher, 0.00547
- AAACGACC — higher, 0.45
- AAACCTCA — higher, 0.033
- ATTGTGGC — lower, -0.131
- GCATGAGC — higher, -0.0629
- CGTCCAGC — lower, -0.205
- ACACAGGA — higher, -0.0255
- AAAACAGC — higher, -0.102
- CACCCCCC — lower, -0.33
- CCCCGGTA — higher, -0.0799
- ACGGAGTC — higher, 0.0712
- AGTATCCG — higher, 0.0992
- ATATCCGA — higher, 0.3
- AACCCTAG — higher, -0.0686
- TGTCGCAA — higher, 0.216
- GTCCGATA — higher, 0.0757
- CACGGACC — higher, 0.135
- AAATGACA — lower, -0.171
- ATTCCTGA — lower, -0.209
- CGCGGAGA — higher, 0.0766
- CTGCTACA — lower, -0.137
- CCGTGTCA — higher, -0.118
- TCGACTAA — higher, -0.0908
- CCCTGGGC — lower, -0.299
- AGGTACTA — higher, -0.0688
- CAAACTTC — higher, -0.125
- CCCCCCCC — lower, -0.402
- CCGGGGCC — lower, -0.129
- TCGAGACA — higher, 0.105
- AATTAATG — higher, 0.0262
- CATGACTA — higher, -0.0693
- ACCTATCC — higher, -0.0402
- CACTTAGC — lower, -0.177
- ACTTGTGG — higher, -0.0916
- AAATTTTC — higher, 0.0924
- CCTGTTCA — higher, -0.0287
- AAGGATCG — higher, 0.22
- CAAGGAGC — higher, -0.0859
- CCCACAAG — higher, 0.0473
- AGCGTACC — higher, 0.251
- GTATGCGA — higher, 0.321
- TCGCCTCA — higher, -0.0214
- CCCGAATC — higher, 0.0646
- GATGTTAA — higher, -0.0215
- AATCAATC — higher, 0.0671
- CTCCGTTA — higher, 0.0433
- ACAGATAA — higher, -0.0749
- AAGCGCAG — higher, -0.0478
- ACGTGTAA — higher, 0.02
- CAAGGACC — higher, -0.0754
- AGGCGGGG — higher, -0.0751
- CATTACCA — lower, -0.173
- ATCCTCCC — higher, -0.0763
- TCCCAGAA — higher, -0.0801
- TCTCTCCA — higher, -0.0875
- ACACTGTA — higher, 0.0998
- CCTTACTA — higher, 0.0754
- ATATTCGA — higher, 0.137
- ATTATTTA — higher, 0.0468
- GGCGCGAC — higher, 0.114
- AGAAAGTA — higher, -0.0193
- AAATGCCA — lower, -0.256
- CCGTGCAC — higher, -0.0946
- AAGGCACA — lower, -0.202
- ACGTCAAG — higher, -0.081
- GGTCATAA — higher, 0.0137
- CCTCCCCC — lower, -0.303
- GTGCTCAA — higher, -0.0853
- CATCGAGG — higher, 0.0649
- AGTGCCCC — lower, -0.297
- ACCCACTA — lower, -0.158
- CGCCATTC — higher, -0.0764
- ATCATGAT — higher, 0.14
- ACGTGAAA — higher, 0.00053
- TAGGGTAA — higher, -0.0377
- AGGTCCTA — higher, -0.0772
- GCTTGGTA — higher, 0.123
- CATGGTAC — higher, 0.0684
- GGATGGGA — higher, 0.0713
- AAAAGCCA — higher, -0.0154
- TAGTACAA — higher, 0.0161
- CCCGCAGG — higher, -0.0318
- CCCGTGAG — lower, -0.208
- CTGATCAC — lower, -0.269
- AAGAACGA — higher, 0.453
- CACTTCTA — lower, -0.213
- AAAGGCTG — lower, -0.243
- CATCGGGG — lower, -0.166
- ACGTCAGG — lower, -0.167
- TCGGTACA — higher, 0.159
- CGCACTTA — higher, -0.0668
- ATGTAGTC — higher, -0.0995
- GGTAACCA — lower, -0.223
- CGGAGTAC — higher, 0.167
- CACTACAG — higher, -0.0957
- TGATCCCA — lower, -0.339
- GCTTTGAA — higher, 0.0443
- ATTGTGGA — higher, -0.0767
- CGTGGAAC — higher, 0.171
- ACGTGAAC — higher, 0.116
- CAGATGCC — higher, -0.0845
- CCATTCAG — lower, -0.372
- CGCGGGCC — higher, -0.0695
- GACGGGGA — higher, 0.0522
- CCTCAAAG — lower, -0.333
- AGCAGTGA — higher, -0.0929
- AGGGTCGA — higher, -0.0633
- CCGTTTAG — higher, 0.433
- ATGGTGGA — lower, -0.233
- GCTGGTCA — higher, -0.107
- ATATGCAG — lower, -0.189
- AAGCGTTA — higher, 0.00424
- ATTTAGAG — higher, -0.071
- GCCCTTCC — lower, -0.238
- CAATTTGC — lower, -0.138
- ACCTCAGT — higher, 0.0481
- AGTGAGTC — lower, -0.183
- CCCCCAAC — lower, -0.333
- GTAGCAGA — higher, 0.0392
- ACCCCGCG — higher, 0.0229
- TAGAACCA — higher, 0.00176
- AAGGAAGC — lower, -0.234
- GACGCCAC — higher, -0.0474
- ATCGGACC — higher, 0.132
- GTGCTGGA — higher, -0.0724
- GAGGTTTA — higher, 0.00322
- GTAATAAC — higher, 0.0435
- AGAGGTGC — higher, -0.0602
- CAGGCACA — lower, -0.345
- CTAGATGA — higher, -0.0373
- GCGACCGC — higher, 0.123
- ACGCTAAC — higher, -0.0173
- ATGCCGGC — lower, -0.133
- GCAAGATA — higher, 0.0593
- CCTGTGGA — lower, -0.334
- CTGCCGAC — higher, 0.0606
- AAATCAGA — higher, 0.0265
- ACATAAAA — higher, 0.0758
- CCCCGGAA — lower, -0.249
- CAACCTGG — higher, -0.0624
- CCTACCCC — higher, -0.0988
- ATCTTTCG — higher, 0.097
- AACAGTGG — lower, -0.169
- GATAGTAC — higher, 0.0708
- ACGTTTGC — higher, 0.0656
- ACAGACAT — higher, 0.0546
- GTCTTTCA — higher, 0.0144
- ACCAATCA — higher, 0.0404
- AGGGCCCG — higher, -0.114
- TACCATGA — lower, -0.159
- CTGATAAG — lower, -0.216
- ACACTTTA — higher, 0.0464
- CAATTAGC — lower, -0.15
- CCGTCATA — higher, 0.0387
- ACGTCGAT — higher, 0.0718
- ACTAACTC — lower, -0.236
- AGACGGGA — higher, -0.0848
- ATTCTCCA — higher, -0.054
- ACTTGTCT — higher, -0.0912
- CCACGCCC — lower, -0.205
- CCCCCACA — lower, -0.362
- AAGCGGAC — higher, -0.0617
- GACCGCGC — higher, 0.0551
- ATCGGGAG — higher, -0.0469
- ATTCGCTG — higher, 0.114
- AACCGCTT — higher, -0.0907
- CGAGAAAC — higher, 0.219
- CTTCACAA — lower, -0.157
- ATCGACAC — higher, 0.0894
- ACGGTGAC — higher, -0.0293
- CCACGCTC — higher, -0.119
- ACAATGAG — higher, -0.111
- GCGAAGTA — higher, 0.112
- ACCGGGGC — higher, -0.124
- CACGGTGG — higher, -0.0182
- AGACTAAC — higher, -0.0838
- ACCGTAAC — higher, 0.231
